This is an account of results in publication PMC6212790.

Some of the results follow. At the low end of the ranking, values are background and their order means little.

This assay has as its target T1, GST-Rok-C97-191 (UniProt O34857).
T1 sequence: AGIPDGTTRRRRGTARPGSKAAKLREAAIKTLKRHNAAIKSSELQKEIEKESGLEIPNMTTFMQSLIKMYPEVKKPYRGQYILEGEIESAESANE
The experiment in a line: protein binding microarray.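 Note: rank score from −0.5 (least bound) to 0.5 (best bound).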 The note with it: Rok is a gene silencer of Bacillus subtilis; high values mean tight binding; most listed sequences are background and not binding sites; double strand, one strand shown.
Turning to AGCCCCAG, the binding signal was -0.229 E-score.
Sequence GAAGTACA came in with a binding signal of 0.237 E-score.
With CCTAAGCA the figure was -0.113 E-score; with GATCAGTA, 0.168 E-score; with CCGTATAA, 0.041 E-score.
With CTTACTCC the figure was -0.261 E-score; with CTAAGTTA, 0.291 E-score.
The same measure for CGTTGAGC: 0.142 E-score.
AATGCTAA: the binding signal is 0.19 E-score.
With CAACAGTG the figure was 0.0183 E-score.
AATTTCGC registered a binding signal of 0.151 E-score.
The same measure for TAGCACGA: 0.153 E-score.
The sequence AGGGAACC displayed a binding signal of -0.181 E-score.
The same measure for AGAAGGAA: -0.0343 E-score.
With AAAGATCA the figure was -0.0229 E-score; with CAAGTAGC, -0.0849 E-score; with GACTTTGA, -0.0997 E-score.
With CTTTACGC the figure was 0.0406 E-score.
As to CGCCAAGA, the binding signal is -0.165 E-score.
With CGTGTGAG the figure was -0.0536 E-score; with AATCTCTG, 0.144 E-score; with AAACTTTG, 0.0736 E-score.
The same measure for CGTTTTGC: 0.0551 E-score; for CATCGTAC: -0.00455 E-score; for GATTATGA: 0.0489 E-score.
With CCCGCACC the figure was -0.122 E-score; with AGTAGTAA, 0.404 E-score.
As to AAACCCAG, the binding signal was 0.143 E-score.
With CGACACCG the figure was -0.204 E-score.
With ATGGGGCG the figure was -0.0966 E-score; with AGACTATG, 0.121 E-score; with TGCGGACA, -0.000971 E-score.
The same measure for CCCATCCG: -0.267 E-score.
CGGACAAA registered a binding signal of 0.0138 E-score.
With CAAACTCA the figure was -0.0752 E-score; with ACCGTCAA, -0.0488 E-score.
With TCGGTCCA the figure was -0.251 E-score; with ATCCGTCG, -0.0336 E-score.
With GCGTGGAA the figure was -0.0222 E-score.
As to CGAATGTC, the binding signal is -0.015 E-score.
With CCGATAAC the figure was 0.207 E-score; with GAGCGCTC, -0.173 E-score; with ATGTAGTA, 0.407 E-score.
The same measure for AGTAACCA: 0.11 E-score; for AAGCTGAA: -0.00744 E-score; for CGATGTAC: 0.206 E-score.
As to CTAATAGA, the binding signal worked out at 0.252 E-score.
With CCTTTGCC the figure was -0.273 E-score; with ACCAGGTC, 0.0158 E-score; with AGGGCCAA, -0.229 E-score.
The same measure for CTCTAAGA: -0.196 E-score; for TAGGTTAA: 0.101 E-score.
The same measure for CAAGAGTA: 0.0613 E-score.
The sequence CTACGCAA showed a binding signal of 0.0577 E-score.
With AGTCTGTC the figure was -0.26 E-score.
With CGTGTGTA the figure was -0.0357 E-score.
As to AGCGCTTA, the binding signal stood at 0.00703 E-score.
The same measure for GGCCGTCA: -0.0566 E-score.
With AACTGGAT the figure was 0.115 E-score; with AAGAAATG, -0.0471 E-score.
The same measure for ACGTAGGA: 0.119 E-score; for GAACATTC: 0.088 E-score; for GTTTAGGA: -0.133 E-score.
On to CCCTCCGC, for which the binding signal is -0.411 E-score.
With CTACTTTC the figure was 0.275 E-score; with GGATCACA, -0.0542 E-score.
The sequence CCGGGGCA had a binding signal of -0.354 E-score.
The same measure for CACTCCGG: -0.137 E-score; for GAGTGATA: 0.182 E-score; for AGCAGTTG: 0.19 E-score.
With AACCCTTG the figure was -0.228 E-score.
The same measure for TACCCAGA: 0.0275 E-score.
Consider ACCAACCT, for which the binding signal was found to be 0.0575 E-score.
The same measure for CTTACTAA: 0.203 E-score.
CAAAGAAC: the binding signal was 0.232 E-score.
The same measure for AAAGAGTA: 0.0872 E-score; for ACCTTAGT: -0.0308 E-score; for CGATGAAC: -0.153 E-score.
The same measure for GTGAAGGA: -0.211 E-score.
The sequence AGAGGCGC yielded a binding signal of -0.215 E-score.
As to AAAGTGGT, the binding signal came out at 0.149 E-score.
The same measure for TCGACTAA: 0.0796 E-score; for AGTTCGTG: -0.134 E-score.
The same measure for GAATCACA: 0.11 E-score; for CCAATTAC: 0.0758 E-score.
In turn, AGACAGAT returned a binding signal of -0.0299 E-score.
The same measure for AAACTAGA: 0.354 E-score; for GATGGAGA: -0.171 E-score.
With GACAAAGC the figure was -0.151 E-score; with CGAGCGAG, -0.272 E-score; with TCTTGAAA, -0.143 E-score.
The same measure for CGGACGAG: -0.278 E-score; for AACCCACT: 0.0905 E-score.
Turning to ACTCGCCT, the binding signal is -0.0993 E-score.
With ATGTGATC the figure was 0.133 E-score; with ACACCATG, 0.0858 E-score.
With CCGGACCC, the binding signal was -0.169 E-score.
For the sequence GCAACGGC, the binding signal was -0.222 E-score.
GACCACGA: the binding signal is -0.251 E-score.
With ACCGTAAA the figure was 0.211 E-score; with GGCTCAAC, -0.147 E-score; with CACTCAAG, -0.138 E-score.
With GCGAGGGA the figure was -0.39 E-score; with ACTCAGGA, -0.0975 E-score; with TAAACCAA, 0.0919 E-score.
With AAGCCGGA the figure was -0.0857 E-score; with CTCGTGGA, -0.21 E-score.
Turning to CAGGGAGC, the binding signal was -0.193 E-score.
With TAGTACCA the figure was 0.25 E-score.
With AAGTTTGA the figure was -0.0338 E-score; with CCAGTAGC, 0.213 E-score; with GGAAGAAC, -0.18 E-score.
In the case of CACCGATC, the binding signal was -0.139 E-score.
Sequence CGCAGTGA showed a binding signal of -0.114 E-score.
The same measure for CAGGCTAA: -0.0564 E-score; for CTGGTCGC: -0.155 E-score; for CCATATCC: -0.00318 E-score.
With AGTGCGGC the figure was -0.129 E-score; with GTCGGTGA, -0.0594 E-score; with AAATGCCG, 0.142 E-score.
Turning to AATGAACG, the binding signal is 0.0378 E-score.
The same measure for CAGATCCC: -0.145 E-score.
With ATAAGGTA the figure was 0.176 E-score; with CCATAACG, -0.0217 E-score; with CACGACCG, -0.153 E-score.
The same measure for CCATCCCA: -0.162 E-score; for GCTCCGAC: -0.133 E-score.
CCAACACG had a binding signal of -0.123 E-score.
With CACGATAG the figure was 0.161 E-score; with AAACACTT, -0.00461 E-score.
The same measure for GGAGACAA: -0.179 E-score; for ACCCTCCA: -0.125 E-score; for CCTTTTAG: 0.0597 E-score.
GGTTACAC showed a binding signal of -0.0727 E-score.
With GGGTGAAA the figure was 0.0555 E-score; with ACGACTTG, 0.0669 E-score.
Take ACCCCCCT: the binding signal was -0.275 E-score.
The same measure for AAAACCAC: -0.0707 E-score.
Regarding GTTACATA, the binding signal amounted to 0.302 E-score.
The same measure for AAAGATAT: 0.266 E-score; for CCAGCAGG: -0.275 E-score; for AACCAACC: -0.0154 E-score.
With CGACACCC the figure was -0.2 E-score.
The same measure for ACCGCGAC: -0.0314 E-score; for CCCTTCCG: -0.284 E-score.
In the case of CTTCACCA, the binding signal was -0.104 E-score.
With GAATGACA the figure was -0.0644 E-score; with ACACGGCC, -0.212 E-score; with GAGGGTCA, -0.211 E-score.
CAGGAGTA gave a binding signal of 0.0915 E-score.
The same measure for ACTTTAGC: 0.00825 E-score.
AACAGGAA yielded a binding signal of -0.11 E-score.
With CGGCTCAA the figure was -0.0709 E-score; with ACACACAA, -0.0584 E-score.
With GATCCCAC the figure was 0.13 E-score; with CGCAGCAG, -0.172 E-score; with ACTCAGTG, -0.201 E-score.
For the sequence AGCTAAGA, the binding signal is -0.0157 E-score.
With ATGATATC the figure was 0.162 E-score.
With ATTCCTGC the figure was 0.182 E-score; with CAATACAA, 0.18 E-score.
The same measure for ATTGCTCC: 0.0699 E-score; for CCAGTTCG: -0.177 E-score.
Regarding ACATCCAG, the binding signal is 0.077 E-score.
Turning to ACGCTTTG, the binding signal is -0.0944 E-score.
With CATGGTAG the figure was 0.188 E-score.
With GCTAAGGA the figure was -0.139 E-score.
With GATCGCTA the figure was 0.0703 E-score; with GGGGTCGA, -0.242 E-score.
Sequence GACGGCAC gave a binding signal of -0.208 E-score.
With ACGAACGG the figure was 0.000593 E-score; with CTCTGAAA, 0.0126 E-score.
